# Source: PubChem BioAssay AID463173 (ICCB-Longwood Screening Facility, Harvard Medical School, 2010)
# About 1,700 (3.3%) of roughly 52,000 compounds were called active. No stated cut-off is given here; in the data, active means survival mostly below about 52% (no sharp cut-off); inactive means mostly above about 56%. The list shows a part of the results.
# Tested on: Wild type
# Experiment: growth inhibition of S. aureus wild type versus tarO mutant, primary screen, teichoic acid synthesis inhibitors, RN4220, OD600 (AID 463173)
# Conditions: S. aureus RN4220 wild type/DeltatarO growth, OD600, 18 h, active compounds read low, screened at 18.75 µg/mL (by protocol)
row,SMILES,survival
1,O=C(NCCc1ccccc1)c1ccc(CSc2nc3ccncc3n2Cc2ccccc2)cc1,inactive: 85%
2,COc1ccccc1OCc1nnc(SCC(=O)N(C)C)o1,inactive: 99%
3,Cn1c(CNc2nc(-c3ccccc3)cs2)nnc1SCC(=O)c1ccccc1,inactive: 107%
4,COc1ccc(Br)cc1CNC(=O)CN1C(=O)CSc2ccc(S(=O)(=O)N3CCOCC3)cc21,inactive: 70%
5,Cc1ccc(NC(=O)c2cc3c(=O)n(Cc4cccnc4)ccc3nc2C)cc1F,inactive: 79%
6,Cc1cc(C(F)F)n2nc(C(=O)Nc3ccc(C)c(C)c3)nc2n1,inactive: 102%
7,CCC(C(=O)NCc1ccccc1)n1ncn2c(cc3occc32)c1=O (stereo not given),inactive: 90%
8,CCC(=O)N1CCN(c2ccc(NC(=O)c3ccccc3)cc2)CC1,inactive: 99%
9,CCOC(=O)c1ccc2ncc(C(=O)OCC)c(Nc3ccc(C)c(Br)c3)c2c1,inactive: 72%
10,Cc1cccc(C(=O)Nc2cccc(C(=O)OCc3cc(=O)n4ccsc4n3)c2)c1,inactive: 87%
11,CN(C)c1ccc(/C=C(/NC(=O)c2ccccc2)C(N)=O)cc1,inactive: 106%
12,COc1ccc(OC(C)C(=O)NCc2nc(-c3ccc(Cl)cc3)no2)cc1 (stereo not given),inactive: 83%
13,COc1ccccc1NC(=O)C1=C(C)Nc2ncnn2C1c1ccccn1 (stereo not given),inactive: 69%
14,COc1ccc(N2CC(C(=O)NC3=NCCS3)CC2=O)cc1 (stereo not given),inactive: 102%
15,O=c1c2oc3ccccc3c2n(Cc2cccc(C(F)(F)F)c2)c(=O)n1Cc1ccc2c(c1)OCO2,inactive: 119%
16,CC(C)Sc1ncc(Cl)c(C(=O)Nc2ccc(S(=O)(=O)N3CCCCC3C)cc2)n1 (stereo not given),inactive: 114%
17,COc1ccc(OC)c(CNC(=O)c2cccc(NC(=O)N3CCSc4ncccc43)c2)c1,inactive: 68%
18,CCOc1ccccc1N(C)C(=O)NCc1noc2ccccc12,inactive: 110%
19,CCn1cc(C(=O)NC(C)c2ccccc2)c(=O)c2cc(S(=O)(=O)N3CCc4ccccc4C3)ccc21 (stereo not given),inactive: 88%
20,O=C(N/N=C/c1ccc(O)cc1)Nc1cccc2nsnc12,inactive: 123%
21,Cc1ccc(-n2nc(C)c3nc(CCC(=O)Nc4ccc(F)cc4)c(=O)n(C)c32)cc1,inactive: 80%
22,CCOc1ccccc1NS(=O)(=O)c1ccc2oc(=O)c3ncn(C)c3c2c1,inactive: 90%
23,Cc1ccc(NC(=O)Cn2cc(S(=O)(=O)N3CCCC3)c(S(=O)(=O)N3CCCC3)c2)c(C)c1,inactive: 71%
24,O=C(O)CN1C(=O)c2ccc(Oc3ccc4c(c3)C(=O)N(CC(=O)O)C4=O)cc2C1=O,inactive: 109%
25,c1cc(N2CCOCC2)ccc1Nc1nc2nonc2nc1Nc1ccc(N2CCOCC2)cc1,inactive: 114%
26,COc1ccc(C(=O)c2cn(CC(=O)Nc3ccc4c(c3)OCO4)c3ccc(OC)cc3c2=O)cc1,inactive: 80%
27,O=C(c1cccnc1Nc1cccc(Cl)c1)N1CCCCC1,inactive: 117%
28,O=C(NCCc1ccc(Cl)cc1)c1cccn1-c1nnc(N2CCCC2)s1,inactive: 130%

row,SMILES,survival
1,C=CCNC(=O)CN1C(=O)COc2ccccc21,inactive: 105%
2,CCc1ccccc1NC(=O)c1cc(S(=O)(=O)NC2CCCC2)ccc1F,inactive: 85%
3,COc1ccc(C(=O)N2CCC(C(=O)Nc3ccccc3Cl)CC2)cc1,inactive: 92%
4,Cc1cccc(NC(=O)CSc2nc3c([nH]c4ccccc43)c(=O)n2-c2ccc(F)cc2)c1C,inactive: 22%
5,COc1ccc(-n2nc(C(=O)N3CCN(c4cccc(C)c4)C(C)C3)c3c4ccccc4n(C)c3c2=O)cc1 (stereo not given),inactive: 87%
6,CCCn1ccc2c(OCC(=O)Nc3ccc(F)cc3F)cccc2c1=O,inactive: 81%
7,Cc1cccc(OCC(=O)Nc2ccc3c(c2)N(C)C(=O)c2ccccc2S3)c1,inactive: 69%
8,Cc1ccc(C(=O)N/C(=C\c2cn(S(=O)(=O)N(C)C)c3ccccc23)C(=O)NCCCn2ccnc2)cc1,inactive: 73%
9,COc1ccc(NC(=O)c2ccco2)cc1NC(=O)COc1ccccc1Cl,inactive: 111%
10,O=C(Cc1cccs1)NC1CCCCCC1,inactive: 114%
11,COc1ccc(CN2CCCN(CC(=O)Nc3ccc4c(c3)OCCO4)S2(=O)=O)cc1,inactive: 81%
12,CCOC(=O)Cn1c(=O)sc2ccccc21,inactive: 116%
13,COc1ccccc1CNC(=O)CCCn1c(=O)c2ccccc2n(Cc2ccc(C)cc2)c1=O,inactive: 129%
14,COc1ccc(C2CC(=O)N(CC(=O)Nc3cccc(C)c3C)c3ccccc3S2)cc1OC (stereo not given),inactive: 91%
15,Cc1ccc(C(=O)N2CCC(C(N)=O)CC2)cc1NC(=O)c1nsc2ccccc12,inactive: 72%
16,CCOC(=O)C1CCN(C(=O)c2nn(-c3ccc(OC)cc3)c(=O)c3c2c2ccccc2n3C)CC1,inactive: 73%
17,Cc1ccc(Sc2ccc(N3CCCC(C(=O)Nc4ccc(F)cc4F)C3)nn2)cc1 (stereo not given),inactive: 51%
18,Cc1nc(C)c(C(=O)N/N=C/c2ccc(O)cc2O)cc1C(=O)N/N=C/c1ccc(O)cc1O,inactive: 108%
19,COc1ccc(N(CC(=O)NCCc2ccc(Cl)cc2)S(=O)(=O)c2c(C)nn(C)c2C)cc1,inactive: 71%
20,Cc1ccc(CSc2nc3cccnc3n2Cc2ccc(C(=O)NCCc3cccs3)cc2)cc1,inactive: 131%
21,Cc1nn(C)c2c1c(C(F)(F)F)cc(=O)n2CC(=O)N1CCC(C)CC1,inactive: 68%
22,CC1CCN(S(=O)(=O)c2cc(C(=O)N3CCN(c4ccccc4F)CC3)n(C)c2)CC1,inactive: 65%
23,Cc1ccc(-c2noc(-c3nnn(CC(=O)Nc4cc(Cl)ccc4C)c3N)n2)cc1,inactive: 59%
24,CCCC(=O)N1CCCC(c2nc(-c3ccc(OC)cc3)no2)C1 (stereo not given),inactive: 106%
25,CCC1CN(C(=O)C2CCN(S(=O)(=O)c3c(C)noc3/C=C/c3ccccc3F)CC2)c2cc(C)ccc2O1 (stereo not given),inactive: 84%
26,COc1ccc(NC(=O)c2oc3ccccc3c2NC(=O)Cc2cccs2)c(OC)c1,inactive: 115%
27,COc1ccc(CNC(=O)C(C)n2c(=O)cc(C)c3c(C)nn(-c4ccccc4)c32)cc1 (stereo not given),inactive: 70%
